The list shows a part of the results. The list includes weakly bound sequences.

The target of this assay is T1, MBP-FoxP3dN (UniProt Q99JB6).
T1 sequence: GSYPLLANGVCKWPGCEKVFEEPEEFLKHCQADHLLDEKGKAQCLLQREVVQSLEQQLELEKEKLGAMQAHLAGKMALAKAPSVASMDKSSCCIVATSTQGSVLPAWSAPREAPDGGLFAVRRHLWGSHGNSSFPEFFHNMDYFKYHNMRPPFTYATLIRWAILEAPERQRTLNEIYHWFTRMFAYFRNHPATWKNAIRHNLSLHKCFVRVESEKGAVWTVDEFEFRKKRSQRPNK
Nature of the assay: PD-seq (MBP pull-down with sequencing). The conditions noted are these: 20 mM Tris-HCl pH 7.5, 100 mM NaCl, 1.5 mM MgCl2, 0.4 uM protein, 0.1 uM dsDNA library, 30 min, room temperature, amylose pull-down; high values mean tight binding; double strand, one strand shown.
For the sequence “GATGATTGTTCTCCCAGCTGATGAATTTTACGCATCGAGTAAACAAATTTTCCTAATCTTTCTGTTCAAGCGCCATCTAC”, the binding signal (RPM ratio (pull-down/input)) amounted to 1.01. With “GATGATTGTTCTCCCAGCTGATGAATTGAACAGGTCGAGTAAACAAATTTTCCTAATCTTTCTGTTCAAGCGCCATCTAC” the figure was 0.192; with “GATGATTGTTCTCCCAGCTGATGAATTCTACGCATCGAGTAAACAAATTTTCCTAATCTTTCTGTTCAAGCGCCATCTAC”, 0.854.

With “GATGATTGTTCTCCCAGCTGATGAATTGGACTTCTCGAGTAAACAAATTTTCCTAATCTTTCTGTTCAAGCGCCATCTAC”, the binding signal (RPM ratio (pull-down/input)) was determined as 0.397. Regarding “GATGATTGTTCTCCCAGCTGATGAATTGTTCTCTTCGAGTAAACAAATTTTCCTAATCTTTCTGTTCAAGCGCCATCTAC”, the binding signal (RPM ratio (pull-down/input)) was determined as 0.401. Under “GATGATTGTTCTCCCAGCTGATGAATTGGGTCCCTCGAGTAAACAAATTTTCCTAATCTTTCTGTTCAAGCGCCATCTAC” stands 0.341; under “GATGATTGTTCTCCCAGCTGATGAATTTATACACTCGAGTAAACAAATTTTCCTAATCTTTCTGTTCAAGCGCCATCTAC”, 1.07; under “GATGATTGTTCTCCCAGCTGATGAATTCTATAACTCGAGTAAACAAATTTTCCTAATCTTTCTGTTCAAGCGCCATCTAC”, 0.329.

As to “GATGATTGTTCTCCCAGCTGATGAATTACCCTGTTCGAGTAAACAAATTTTCCTAATCTTTCTGTTCAAGCGCCATCTAC”, the binding signal (RPM ratio (pull-down/input)) came out at 0.292. With “GATGATTGTTCTCCCAGCTGATGAATTATTTGCCTCGAGTAAACAAATTTTCCTAATCTTTCTGTTCAAGCGCCATCTAC” the figure was 2.04; with “GATGATTGTTCTCCCAGCTGATGAATTCCCCGTCTCGAGTAAACAAATTTTCCTAATCTTTCTGTTCAAGCGCCATCTAC”, 0.252; with “GATGATTGTTCTCCCAGCTGATGAATTCGAGCACTCGAGTAAACAAATTTTCCTAATCTTTCTGTTCAAGCGCCATCTAC”, 0.419. “GATGATTGTTCTCCCAGCTGATGAATTACATCAATCGAGTAAACAAATTTTCCTAATCTTTCTGTTCAAGCGCCATCTAC”: the binding signal (RPM ratio (pull-down/input)) was determined as 0.634. Take “GATGATTGTTCTCCCAGCTGATGAATTCGACACCTCGAGTAAACAAATTTTCCTAATCTTTCTGTTCAAGCGCCATCTAC”: the binding signal (RPM ratio (pull-down/input)) is 0.881. Under “GATGATTGTTCTCCCAGCTGATGAATTGGCGGCGTCGAGTAAACAAATTTTCCTAATCTTTCTGTTCAAGCGCCATCTAC” stands 0.539; under “GATGATTGTTCTCCCAGCTGATGAATTATTACGTTCGAGTAAACAAATTTTCCTAATCTTTCTGTTCAAGCGCCATCTAC”, 0.524; under “GATGATTGTTCTCCCAGCTGATGAATTCCGGGTTTCGAGTAAACAAATTTTCCTAATCTTTCTGTTCAAGCGCCATCTAC”, 0.579.

Consider “GATGATTGTTCTCCCAGCTGATGAATTCCGAAGCTCGAGTAAACAAATTTTCCTAATCTTTCTGTTCAAGCGCCATCTAC”, for which the binding signal (RPM ratio (pull-down/input)) is 0.243. With “GATGATTGTTCTCCCAGCTGATGAATTGTGTGTATCGAGTAAACAAATTTTCCTAATCTTTCTGTTCAAGCGCCATCTAC” the figure was 6.39; with “GATGATTGTTCTCCCAGCTGATGAATTAGTAAAATCGAGTAAACAAATTTTCCTAATCTTTCTGTTCAAGCGCCATCTAC”, 0.249; with “GATGATTGTTCTCCCAGCTGATGAATTCGCTATTTCGAGTAAACAAATTTTCCTAATCTTTCTGTTCAAGCGCCATCTAC”, 1.67. For “GATGATTGTTCTCCCAGCTGATGAATTGCGAATCTCGAGTAAACAAATTTTCCTAATCTTTCTGTTCAAGCGCCATCTAC”, the binding signal (RPM ratio (pull-down/input)) is 2.16. With “GATGATTGTTCTCCCAGCTGATGAATTTTAACCGTCGAGTAAACAAATTTTCCTAATCTTTCTGTTCAAGCGCCATCTAC” the figure was 0.248. Take “GATGATTGTTCTCCCAGCTGATGAATTAGAGAATTCGAGTAAACAAATTTTCCTAATCTTTCTGTTCAAGCGCCATCTAC”: the binding signal (RPM ratio (pull-down/input)) worked out at 0.695.

Consider “GATGATTGTTCTCCCAGCTGATGAATTTGGATTCTCGAGTAAACAAATTTTCCTAATCTTTCTGTTCAAGCGCCATCTAC”, for which the binding signal (RPM ratio (pull-down/input)) was determined as 0.785. On to “GATGATTGTTCTCCCAGCTGATGAATTACCCAACTCGAGTAAACAAATTTTCCTAATCTTTCTGTTCAAGCGCCATCTAC”, for which the binding signal (RPM ratio (pull-down/input)) was 0.253. With “GATGATTGTTCTCCCAGCTGATGAATTTTGCAACTCGAGTAAACAAATTTTCCTAATCTTTCTGTTCAAGCGCCATCTAC” the figure was 6.24; with “GATGATTGTTCTCCCAGCTGATGAATTCTAGGCCTCGAGTAAACAAATTTTCCTAATCTTTCTGTTCAAGCGCCATCTAC”, 0.39; with “GATGATTGTTCTCCCAGCTGATGAATTACGGACCTCGAGTAAACAAATTTTCCTAATCTTTCTGTTCAAGCGCCATCTAC”, 0.269.

With “GATGATTGTTCTCCCAGCTGATGAATTAATTCAGTCGAGTAAACAAATTTTCCTAATCTTTCTGTTCAAGCGCCATCTAC”, the binding signal (RPM ratio (pull-down/input)) came out at 0.216.

“GATGATTGTTCTCCCAGCTGATGAATTTCCGGAATCGAGTAAACAAATTTTCCTAATCTTTCTGTTCAAGCGCCATCTAC”: the binding signal (RPM ratio (pull-down/input)) stood at 0.165. With “GATGATTGTTCTCCCAGCTGATGAATTAAAACGGTCGAGTAAACAAATTTTCCTAATCTTTCTGTTCAAGCGCCATCTAC” the figure was 0.243.

The record behind these values is article PMC12820563.
